In PubChem BioAssay AID624296 (National Center for Advancing Translational Sciences (NCATS), 2012):
In all, about 350,000 compounds went through this assay and about 9,900 (2.8%) were called active. Inconclusive means that the source gave no clear call. Such entries were picked first, then a sample of the others. Calls follow the shape of the dose curve; as a rule, active = well fitted activation curve with a large enough effect; inconclusive = small, poorly fitted or top-dose-only effect; inactive = no such curve, though single readings can be large or run the other way. No potency is given beside an inconclusive call; the fits are too rough.

test: A quantitative high throughput screen for small molecules that induce DNA re-replication in MCF 10a normal breast cells.; also: nearly all actives have a fitted effect of over 50% in size; as to activity, positive = re-replication: % of control where 0% means no effect; conditions: MCF 10A DNA re-replication, Hoechst nuclear intensity, 48 h; activity, positive = re-replication: at 46.1 µM (top of the series)
Potency is read from the fitted curve at half-maximal effect; tags tell the direction and shape of the fitted curve.

Row | Compound | Potency | activity, positive = re-replication
1 | Cc1cc(Cl)ccc1OCC(=O)OCC(=O)Nc1ccc(F)c([N+](=O)[O-])c1 | inconclusive [activator, full curve, poor fit] | –
2 | CC(C)CC1NC(=O)N(CC(=O)NC2CCCCC2)C1=O (stereo not drawn) | – | inactive: -7.67%
3 | c1ccc(-c2n[nH]c(-c3ccccn3)n2)cc1 | – | inactive: -2.55%
4 | CC(C)(C)OC(=O)NCCC(=O)N/N=C/c1ccc2nccnc2c1 | inconclusive [activator, single point] | –
5 | Nc1ccccc1-c1nnc(-c2ccc(-c3ccccc3)cc2)o1 | inconclusive [activator, partial curve, poor fit] | –
6 | CC(O)CNCCOc1ccccc1OCc1ccccc1 (stereo not drawn) | – | inactive: 3.15%
7 | CCOC(=O)c1cc2c(ccn2-c2ccc(F)cc2)n1CC(=O)N(CC)CC | inconclusive [activator, partial curve, poor fit] | –
8 | CCN1CCN(S(=O)(=O)c2ccc(C(=O)Nc3sc4c(c3C(N)=O)CCN(CC)C4)cc2)CC1 | inconclusive [activator, partial curve, poor fit] | –
9 | CC12CCC(=O)N1C(C(=O)Nc1nnc(SCc3ccccc3)s1)CS2 (stereo not drawn) | inconclusive [activator, single point] | –
10 | Cc1ccccc1NCC(=O)N/N=C/c1c(C)c(C(=O)c2ccc(Cl)cc2)n2ccccc12 | inconclusive [activator, single point] | –
11 | COC(=O)c1c(NC(=O)c2nc3ccccc3s2)sc2c1CCN(C(C)=O)C2 | inconclusive [activator, full curve] | –
12 | CN(Cc1ccccn1)Cc1nc(COc2ccccc2)no1 | inconclusive [activator, single point] | –
13 | CSc1ccc(/C=N/NC(=O)c2ccccc2Cl)cc1 | active: 23.1 µM | –
14 | N/C(=N\OC(=O)c1ccccc1)c1ccn[nH]1 | – | inactive: -1.64%
15 | Cc1c(NC(=O)C(C)OC(=O)CCc2c[nH]c3ccccc23)c(=O)n(-c2ccccc2)n1C (stereo not drawn) | – | inactive: 5.66%
16 | COc1ccc(Nc2nc(-c3cccs3)nc3ccccc23)c(OC)c1 | inconclusive [activator, single point] | –
17 | CCCCCCCc1c(O)nc(SCCN(C)C)[nH]c1=O | – | inactive: -6.52%
18 | COc1ccc(CCNC(=O)c2ccccc2NC(=O)c2ccco2)cc1OC | – | inactive: -0.0916%
19 | Cc1cccc(C(=O)NCC(c2cccs2)N2CCOCC2)c1 (stereo not drawn) | inconclusive [activator, partial curve, poor fit] | –
20 | Cc1ccc(C2=NN(CC(=O)NCc3ccccn3)C(=O)CC2)cc1 | inconclusive [activator, partial curve, poor fit] | –
21 | O=C(CCC(=O)N1CCN(c2ccc(Cl)c(Cl)c2)CC1)c1ccccc1 | inconclusive [activator, partial curve, poor fit] | –
22 | COCCN(Cc1ccccc1)C(=O)c1cc(-c2ccc(OC)c(OC)c2)nc2ccccc12 | inconclusive [activator, single point] | –

Row | Compound | Potency | activity, positive = re-replication
23 | CCCCc1ccc(NC(=O)CC(C)(C)C)cc1 | inconclusive [activator, single point] | –
24 | COc1cccc(-c2cc3nc4c(c(NCC(C)(C)CN(C)C)n3n2)CCCC4)c1 | inconclusive [activator, single point] | –
25 | CCc1ccc([C@H]2C(C(=O)O)=C[C@@H](CC3CCCC3)N2S(=O)(=O)c2ccc(C)cc2)cc1 | inconclusive [activator, single point] | –
26 | CCCOc1ccc(/C=N/NC(=S)Nc2ccccc2[N+](=O)[O-])c(O)c1 | inconclusive [activator, partial curve, poor fit] | –
27 | CCCn1nnc(NC(=O)c2ccccc2Br)n1 | active: 18.4 µM | –
28 | C[C@H](NC(=O)c1nc[nH]c1C(=O)N1CCN(C(=O)OC(C)(C)C)CC1)C(=O)OC(C)(C)C | inconclusive [activator, full curve, poor fit] | –
29 | Oc1ccc(Nc2nc(NCC3CCCO3)c3ccccc3n2)cc1 (stereo not drawn) | inconclusive [activator, single point] | –
30 | O=C(c1ccc2c(c1)OCO2)N1CCN(c2ccc(Cl)cc2)CC1 | inconclusive [activator, single point] | –
31 | Cc1ccc(Cc2cc(-c3ccc(C)cc3)n[nH]c2=O)cc1 | inconclusive [activator, single point] | –
32 | CCOC(=O)COc1ccc(C2NC(C(=O)O)CS2)cc1 (stereo not drawn) | – | inactive: -0.0144%
33 | O=C(CSc1ccccc1)Nc1ccc(C(=O)Nc2ccc(O)cc2)cc1 | inconclusive [activator, partial curve, poor fit] | –
34 | CCOc1ccc(S(=O)(=O)NCc2ccco2)c2ccccc12 | inconclusive [activator, single point] | –
35 | COc1ccc(N2CC(C(=O)N/N=C/c3cc([N+](=O)[O-])ccc3O)CC2=O)cc1 (stereo not drawn) | inconclusive [activator, single point] | –
36 | COc1ccc(/C=N/NC(=O)Cc2ccc(Cl)cc2)cc1OC | inconclusive [activator, partial curve, poor fit] | –
37 | Cc1ccc(OCC(=O)Nc2ccccc2C(=O)N2CCCC2)cc1 | – | inactive: 3.22%
38 | Cc1ccc(Oc2nccc(-c3ccc(Cl)cc3)n2)cc1 | – | inactive: 10%
39 | COc1ccccc1NC(=O)c1ccc(COc2ccccc2Br)o1 | inconclusive [activator, partial curve, poor fit] | –
40 | COc1cc(/C=C2\SC(=S)N(NC(=O)c3ccncc3)C2=O)ccc1O | – | inactive: -26.3%
41 | Cc1cc(C(=O)Nc2ccc(C#N)cc2)on1 | – | inactive: -0.309%
42 | CC(=O)N/N=C/c1cc(C)n(-c2ccc(Br)cc2)c1C | inconclusive [activator, partial curve, poor fit] | –
43 | CCN1CCN(c2ccc(S(=O)(=O)N3CCCCC3)cc2NC(=O)c2cccc(NC(C)=O)c2)CC1 | inconclusive [activator, full curve, poor fit] | –
